Some of the results follow.
Biological target: T1, OsWOX13 (Oryza sativa, UniProt Q5QMM3 1-267)
T1 sequence: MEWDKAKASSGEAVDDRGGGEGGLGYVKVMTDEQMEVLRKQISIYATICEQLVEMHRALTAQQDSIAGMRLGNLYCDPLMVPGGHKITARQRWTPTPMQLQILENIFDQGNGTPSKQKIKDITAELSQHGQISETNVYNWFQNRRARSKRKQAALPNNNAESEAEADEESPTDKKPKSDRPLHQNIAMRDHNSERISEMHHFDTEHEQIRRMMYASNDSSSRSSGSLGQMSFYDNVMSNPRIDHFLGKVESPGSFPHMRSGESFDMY
Test: protein-binding microarray (RPBM); PBS, 2% BSA, 51.3 ng/ul salmon testes DNA, 50 uM zinc acetate, 200 nM TF, 25 C, 1 h; high values mean tight binding
Settings: protein: recombinant; tags: N-terminal polyhistidine and DsRed monomer fusion (pET32a); label: CyDye5-dUTP incorporated in the synthesized complementary strand; 3' TTTTT single-stranded linker to array surface; dsDNA, one strand shown
In short: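 Transcription factors were each fused at the N-terminus to a polyhistidine tag plus DsRed and expressed in E. coli BL21-CodonPlus before Ni–NTA purification. Binding to a double-stranded custom Agilent array was carried out with 200 nM protein at 25 °C for 1 h in PBS, 2% BSA, salmon testes DNA and 50 µM zinc acetate. The binding signal is per-feature fluorescence intensity, in arbitrary units, on an Axon 4000B scanner.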

| Sequence | binding signal |
| --- | --- |
| AACAAAATTTTACTAAATTCGAATTATTTGGTCAGTGTCACGGAGTCACCTAGTGCAG | 8550 fluorescence intensity (a.u.) |
| GTGTAATTATACTATAATTGTACTGTAATTACATCTGTCACGGAGTCACCTAGTGCAG | 56600 fluorescence intensity (a.u.) |
| CCAGATTGGCTTCGGCTCCTTCTTCCATCGCCGTCCTGTTCGGAGTCACCTAGTGCAG | 36700 fluorescence intensity (a.u.) |
| CATGAGATTATTGACTAGCACGGTAAAACAAAAGCCACAACGGAGTCACCTAGTGCAG | 7900 fluorescence intensity (a.u.) |
| GCTGATCAGTACTCGATTGATCAATCAGCTATATATACAACGGAGTCACCTAGTGCAG | 11900 fluorescence intensity (a.u.) |
| GTTCAGAAAGGATTGACTGATTAAGGAGTACTGTAGAGATCGGAGTCACCTAGTGCAG | 9580 fluorescence intensity (a.u.) |
| TTAATTAACGCGATTAATTAGCCGCAAATCTCAATCCAGGCGGAGTCACCTAGTGCAG | 53200 fluorescence intensity (a.u.) |
| TTAATAATATAATAGATTTGGCTTCATATTGGTATCAAACCGGAGTCACCTAGTGCAG | 7620 fluorescence intensity (a.u.) |
| CTGATTCTTTCCAATCAGGGCAAGAATTATCTGTATCAAGCGGAGTCACCTAGTGCAG | 10400 fluorescence intensity (a.u.) |
| CATATACAAGCCAGAGAGATTGATTAATATCCCTGTCGCACGGAGTCACCTAGTGCAG | 5600 fluorescence intensity (a.u.) |
| TAAATTAATATATGATTGATCACTTCATAAACATGGAAGTCGGAGTCACCTAGTGCAG | 31900 fluorescence intensity (a.u.) |
| AATTAATTAATTAGCAATGCAGCATCGTCGATCATTGACCCGGAGTCACCTAGTGCAG | 62500 fluorescence intensity (a.u.) |
| GAGAAATGATTGACGCCATGGATCGGAAGAGGCTGGGTGCCGGAGTCACCTAGTGCAG | 51700 fluorescence intensity (a.u.) |
| ATTACATATCAATTTTGTTATATTTACATACTTTCTCCGTCGGAGTCACCTAGTGCAG | 5880 fluorescence intensity (a.u.) |
| TAGTCTGACAGATCAATTACAACCTCCGCATTCATCTTAGCGGAGTCACCTAGTGCAG | 22900 fluorescence intensity (a.u.) |
| ACTGAAATGCTAATCAAAGTATTCCATTCCAATGGGTTTACGGAGTCACCTAGTGCAG | 7770 fluorescence intensity (a.u.) |
| ATATAATTGGTAAAGTATATATATATACATATCCCCAATTCGGAGTCACCTAGTGCAG | 27000 fluorescence intensity (a.u.) |
| TTATATTTAATCACCGTGCAATTAATTAAGCGTGGCTGACCGGAGTCACCTAGTGCAG | 31300 fluorescence intensity (a.u.) |
| ACTACAAATTAATTAAAGTAGAGTAACGAAATATCCACTGCGGAGTCACCTAGTGCAG | 22700 fluorescence intensity (a.u.) |
| TCTGATGTGTTTCTTCATATGATTTTGTGTATGCCGAGTTCGGAGTCACCTAGTGCAG | 7590 fluorescence intensity (a.u.) |
| CTTAATTAATTTATTATTAGCAAATATTTACTGTAGCACACGGAGTCACCTAGTGCAG | 37800 fluorescence intensity (a.u.) |

| Sequence | binding signal |
| --- | --- |
| GAAGAAATTAAAACAATGTGACAGAAAAGTTAGAAGTTTGCGGAGTCACCTAGTGCAG | 5410 fluorescence intensity (a.u.) |
| AACATTAACTGTTTTCTTTAGCAACTACTGATCGATACACCGGAGTCACCTAGTGCAG | 3510 fluorescence intensity (a.u.) |
| GGTGGTGATTTGTGGGCGTTAGCCGCTGACATGTGGGTCCCGGAGTCACCTAGTGCAG | 16400 fluorescence intensity (a.u.) |
| TCATGGCGTAATTAGACTCAAAAGATTCGTCTCGCAATTTCGGAGTCACCTAGTGCAG | 3330 fluorescence intensity (a.u.) |
| AAATGATTAAAATACATCGGCGTGAAAATATTTATCATGACGGAGTCACCTAGTGCAG | 11000 fluorescence intensity (a.u.) |
| GTGCATAATCTGTAATTAACATTTGTTACATGGACAGCCCCGGAGTCACCTAGTGCAG | 15100 fluorescence intensity (a.u.) |
| TTGTAATTAATCATTTTGCAAGATTTGCATGACTAGTAAACGGAGTCACCTAGTGCAG | 12000 fluorescence intensity (a.u.) |
| ATTCTTGATTACGAACAATACTAATATTATCATAATAAACCGGAGTCACCTAGTGCAG | 5520 fluorescence intensity (a.u.) |
| GCTGAACTAATAATTACCTTTTATGTGGATCTAGTGACAGCGGAGTCACCTAGTGCAG | 10900 fluorescence intensity (a.u.) |
| CTAATTATATAAATGAGAGCTAATCCACGAGATGATCTTTCGGAGTCACCTAGTGCAG | 3640 fluorescence intensity (a.u.) |
| GATTAGTTATTAGCTTGATTGGGTGCGTGGTCTGCTTCTGCGGAGTCACCTAGTGCAG | 27200 fluorescence intensity (a.u.) |
| ACGTACAATTTGCTAAATTTTCACAAGTCCCTCTAGAACTCGGAGTCACCTAGTGCAG | 3440 fluorescence intensity (a.u.) |
| TAGTTAATTGTGCCAAACAAAATTCAAAATTAAGACATCTCGGAGTCACCTAGTGCAG | 33000 fluorescence intensity (a.u.) |
| CACAATTATGCCAATCAACATCTGGTCTCAAGACGTTCAGCGGAGTCACCTAGTGCAG | 35400 fluorescence intensity (a.u.) |
| ATATGTAAATTACTTTTACGCTTTATTGAATTTACTTTTACGGAGTCACCTAGTGCAG | 6150 fluorescence intensity (a.u.) |
| GTGATTAGCCCATACTAATTGGGCCATGATGGGATTCTGACGGAGTCACCTAGTGCAG | 34600 fluorescence intensity (a.u.) |
| AAGATAAGATTGGGAGCACAACAAACAAAGTTGGGCACATCGGAGTCACCTAGTGCAG | 6630 fluorescence intensity (a.u.) |
| AATTTATTAAATTAATTTAGACTTGCGAGAAGAACTTCAGCGGAGTCACCTAGTGCAG | 27000 fluorescence intensity (a.u.) |
| ATTGCATCATTTCGATTAGTTAATTTGCAACGATTACGACCGGAGTCACCTAGTGCAG | 3340 fluorescence intensity (a.u.) |
| TTCTTTTGCACCGTCCGATATCAATCATGAGGAATGAACCCGGAGTCACCTAGTGCAG | 4030 fluorescence intensity (a.u.) |
| GTGACCGGTTTTGATTAGTTAAGGGACGCGGGATATCTGGCGGAGTCACCTAGTGCAG | 9410 fluorescence intensity (a.u.) |

— article PMC7819943, “Rice protein-binding microarrays: a tool to detect cis-acting elements near promoter regions in rice”
